The text below walks through data of paper PMC12607630.

The chains behind the UniProt entries cited, without tags or fusion partners. Residues count along the entry.
FtsZ^316-383 (bacterial two-hybrid fusion) (P0A9A6, residues 316-383): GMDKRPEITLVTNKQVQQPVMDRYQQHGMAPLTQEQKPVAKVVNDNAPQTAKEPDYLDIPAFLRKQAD
FtsZ^316-370 (bacterial two-hybrid fusion) (P0A9A6, residues 316-370): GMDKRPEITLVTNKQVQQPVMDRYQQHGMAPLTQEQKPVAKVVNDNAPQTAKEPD

Results are given in words; binding and its absence hold for the method and conditions named. Some entries that bind do so weakly or less than the wild type. Sequences can lack the tags named with a protein.

Holding throughout (experiment): two-hybrid; bacterial two-hybrid in strain LYA1 (BTH101, ftsA^R286W); LB plates with antibiotics, 100 µg/mL X-gal and IPTG, 30°C, about 40 hours
The target in experiment [1] is FtsZ^316-370 (bacterial two-hybrid fusion) (Escherichia coli) (UniProt P0A9A6).
Experiment [2] deals with FtsZ^316-383 (bacterial two-hybrid fusion) (Escherichia coli) (UniProt P0A9A6).
In experiment [3] the target is FtsZ^370-383 (bacterial two-hybrid fusion) (Escherichia coli) (UniProt P0A9A6).
The target in experiment [4] is T1, FtsZ^370-383 (bacterial two-hybrid fusion) (Escherichia coli), P0A9A6.
T1 chain: DYLDIPAFLRKQAD
Particulars: remark: other sources report otherwise.

B1: FtsA (bacterial two-hybrid fusion) (protein, UniProt P0ABH0 1-420)
chain: MIKATDRKLVVGLEIGTAKVAALVGEVLPDGMVNIIGVGSCPSRGMDKGGVNDLESVVKCVQRAIDQAELMADCQISSVYLALSGKHISCQNEIGMVPISEEEVTQEDVENVVHTAKSVRVRDEHRVLHVIPQEYAIDYQEGIKNPVGLSGVRMQAKVHLITCHNDMAKNIVKAVERCGLKVDQLIFAGLASSYSVLTEDERELGVCVVDIGGGTMDIAVYTGGALRHTKVIPYAGNVVTSDIAYAFGTPPSDAEAIKVRHGCALGSIVGKDESVEVPSVGGRPPRSLQRQTLAEVIEPRYTELLNLVNEEILQLQEKLRQQGVKHHLAAGIVLTGGAAQIEGLAACAQRVFHTQVRIGAPLNITGLTDYAQEPYYSTAVGLLHYGKESHLNGEAEVEKRVTASVGSWIKRLNSWLRKEF
With B1, the values for the binding entry in experiment [1], in experiment [2] and in experiment [3] were “no binding”, “binds” and “no binding”, respectively.

B2: MinC (bacterial two-hybrid fusion) (protein, UniProt P18196 1-231)
chain: MSNTPIELKGSSFTLSVVHLHEAEPKVIHQALEDKIAQAPAFLKHAPVVLNVSALEDPVNWSAMHKAVSATGLRVIGVSGCKDAQLKAEIEKMGLPILTEGKEKAPRPAPTPQAPAQNTTPVTKTRLIDTPVRSGQRIYAPQCDLIVTSHVSAGAELIADGNIHVYGMMRGRALAGASGDRETQIFCTNLMAELVSIAGEYWLSDQIPAEFYGKAARLQLVENALTVQPLN
As for B2, the values for the binding entry in experiment [1], in experiment [2] and in experiment [3] were “no binding”, “binds” and “no binding”, respectively.

B3: SlmA (bacterial two-hybrid fusion) (protein, UniProt P0C093 1-198)
chain: MAEKQTAKRNRREEILQSLALMLESSDGSQRITTAKLAASVGVSEAALYRHFPSKTRMFDSLIEFIEDSLITRINLILKDEKDTTARLRLIVLLLLGFGERNPGLTRILTGHALMFEQDRLQGRINQLFERIEAQLRQVLREKRMREGEGYTTDETLLASQILAFCEGMLSRFVRSEFKYRPTDDFDARWPLIAAQLQ
On to B3, for which the binding result is “no binding” in experiment [1] and “binds” in experiment [2].

B4: SlmA (bacterial two-hybrid fusion), P0C093 1-198 (protein)
chain: MAEKQTAKRNRREEILQSLALMLESSDGSQRITTAKLAASVGVSEAALYRHFPSKTRMFDSLIEFIEDSLITRINLILKDEKDTTARLRLIVLLLLGFGERNPGLTRILTGHALMFEQDRLQGRINQLFERIEAQLRQVLREKRMREGEGYTTDETLLASQILAFCEGMLSRFVRSEFKYRPTDDFDARWPLIAAQLQ
For the molecule B4, the binding entry in experiment [4] is recorded as “no binding”.
